# From PubChem BioAssay AID1259400 (National Center for Advancing Translational Sciences (NCATS), 2018)
# Among all 350,000 compounds or so, about 2,100 (0.6%) were called active. The inconclusive results got no clear call from the source; some entries with a clear call stand among them for comparison.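 How the source made its calls: active means activity change of -60% or lower, but not beyond a set lower limit; inconclusive means change between -60% and -40%, or beyond the set limit; inactive means change above -40%.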
# Target: Relaxin receptor 1 (Homo sapiens) (UniProt Q9HBX9)
# Assay: qHTS Assay for Antagonists of the Relaxin Receptor RXFP1
# Conditions: HEK293-RXFP1, relaxin-stimulated cAMP HTRF, 30 min; at 57.5 µM; stronger effect = lower value
# On the % scale 0 is the no-effect control and ±100 the full control effect.
# UniProt Q9HBX9, sequence (Q9HBX9 whole entry, looked up): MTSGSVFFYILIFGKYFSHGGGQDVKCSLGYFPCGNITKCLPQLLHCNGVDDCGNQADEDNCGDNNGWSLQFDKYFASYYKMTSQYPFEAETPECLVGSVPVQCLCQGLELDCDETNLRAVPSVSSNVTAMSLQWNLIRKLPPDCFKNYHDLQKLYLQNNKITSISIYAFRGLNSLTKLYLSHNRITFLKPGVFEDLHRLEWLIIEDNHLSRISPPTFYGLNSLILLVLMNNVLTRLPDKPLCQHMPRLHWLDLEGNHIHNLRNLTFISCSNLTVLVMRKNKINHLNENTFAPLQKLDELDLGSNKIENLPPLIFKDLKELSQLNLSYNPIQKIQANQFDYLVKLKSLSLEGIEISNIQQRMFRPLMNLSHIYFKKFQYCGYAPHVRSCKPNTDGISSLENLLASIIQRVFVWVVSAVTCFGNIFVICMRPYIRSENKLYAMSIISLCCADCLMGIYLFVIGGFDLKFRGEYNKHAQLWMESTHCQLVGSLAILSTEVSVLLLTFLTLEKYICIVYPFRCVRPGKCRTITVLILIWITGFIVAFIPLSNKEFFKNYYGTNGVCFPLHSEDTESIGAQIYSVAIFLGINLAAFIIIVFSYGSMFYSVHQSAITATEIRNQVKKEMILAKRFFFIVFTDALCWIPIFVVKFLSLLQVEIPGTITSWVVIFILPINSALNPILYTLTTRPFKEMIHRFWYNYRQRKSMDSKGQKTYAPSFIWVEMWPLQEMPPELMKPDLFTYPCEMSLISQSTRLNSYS
row,Compound,"activity change, negative = inhibition"
1,CCN(c1ccccc1)S(=O)(=O)c1cc(C(=O)Nc2ccc(Br)cc2)ccc1F,inconclusive: -46.3%
2,O=C(NNc1ccccc1[N+](=O)[O-])Nc1ccc(Cl)c(Cl)c1,inactive: -30.3%
3,Oc1c(C(Nc2nccs2)c2ccc(C(F)(F)F)cc2)ccc2cccnc12 (stereo unspecified),inconclusive: -56.6%
4,Cc1cccc(NC(=O)C(=O)c2cc(C)n(-c3ccccc3)c2C)c1C,inconclusive: -54.1%
5,CCNC(=O)COC(=O)c1ccc(-c2nc3ccccc3s2)s1,inactive: 0.642%
6,COc1ccc(C2CC(=O)c3cc(-c4nc(-c5ccc(Cl)cc5)cs4)c(=O)[nH]c3C2)cc1 (stereo unspecified),inactive: -10.3%
7,O=C(CCc1nc2ccccc2c(=O)[nH]1)N1CCN(S(=O)(=O)c2cccc([N+](=O)[O-])c2)CC1,inconclusive: -44.3%
8,CCOn1c(=O)c(C)[n+]([O-])c2ccccc21,inconclusive: -40.6%
9,Cc1[nH]n(-c2ccc([N+](=O)[O-])cc2)c(=O)c1C=NCCc1ccc(S(N)(=O)=O)cc1,inactive: -13.3%
10,O=C(CCCN1C(=O)/C(=C\c2ccccc2)SC1=S)Nc1ccc(O)cc1C(=O)O,inconclusive: -48.9%
11,Brc1ccc(-c2ccc(CNCCSc3nnnn3-c3ccccc3)o2)cc1,inactive: 5.99%
12,Cc1ccc(C)c(Cn2c3ccccc3c3cnn(CC(=O)NCCCN4CCOCC4)c(=O)c32)c1,inconclusive: -46.9%
13,CCC(CC)C(=O)Nc1c(C(=O)N2CCN(c3ccccc3F)CC2)oc2ccccc12,inconclusive: -53.6%
14,CCC1(CC)Cc2ccccc2-c2nc(CCl)[nH]c(=O)c21,active: -80.4%
15,O=C(CS(=O)(=O)c1ccc(F)cc1)Nc1nnc(-c2cccs2)o1,inactive: -4.83%
16,CCSc1nnc(NC(=O)c2ccc3c(c2)OCO3)s1,inactive: -19.4%
17,O=C1C=CC(=O)N1CCCCCCCCCCN1C(=O)C=CC1=O,inactive: -36.7%
18,O=C(c1ccncc1)N1CCN(C2CCC(c3ccccc3)CC2)CC1 (stereo unspecified),active: -63.8%
19,Cc1cccc(NC(=O)c2ccc3c(=O)n(CC4CCCO4)c(=S)[nH]c3c2)c1 (stereo unspecified),inconclusive: -59.2%
20,COc1ccc(Br)cc1CNC(=O)C(C)n1nc(C)n2c(cc3occc32)c1=O (stereo unspecified),inactive: 2.93%
21,O=S(=O)(c1ccc2[nH]c3c(c2c1)CCCC3)N1CCCCC1,inactive: -8.14%
22,O=C(CN1C(=O)C2CC=CCC2C1=O)Nc1nc(-c2ccc(F)c(F)c2)cs1 (stereo unspecified),inconclusive: -41%

row,Compound,"activity change, negative = inhibition"
1,Cc1cccc(NCc2nc3ccccc3n2CCOc2ccccc2C)c1,inconclusive: -45.8%
2,Cc1ccnc(NS(=O)(=O)c2ccc(NC(=O)CCc3ccccc3)cc2)n1,inconclusive: -42.2%
3,Cc1cccc(C(=O)N(Cc2ccco2)Cc2ccccc2F)c1,active: -71.9%
4,CC(=O)N1c2ccc(S(=O)(=O)NCC3CCC(C(=O)N(C)Cc4ccccc4)CC3)cc2CC1C (stereo unspecified),inactive: 21.3%
5,O=C(CCn1c(=O)sc2ccccc21)NC1=NCCS1,inactive: -35%
6,N#Cc1ccc(NC(=O)Nc2ccc(Oc3ccc(NC(=O)Nc4ccc(C#N)cc4)cc3)cc2)cc1,inconclusive: -54.9%
7,Cc1cc(-c2ccc(S(=O)(=O)NCc3ccccc3Cl)s2)on1,inactive: 12.8%
8,CC(=O)c1cccc(Nc2nc(-c3ccccc3)cs2)c1,inconclusive: -49.1%
9,CC(C)(C)c1ccc(-c2nnc3sc(-c4ccccn4)nn23)cc1,inconclusive: -55.9%
10,CCOC(=O)CSc1nc(=O)n2ccc(C)cc2n1,active: -71.9%
11,CCCOc1ccc(C2C(=O)N(C3CCCCCC3)CC(=O)N2Cc2ccc(OC)cc2)cc1OC (stereo unspecified),inactive: 3.02%
12,Cc1ccc(OCC(=O)N(Cc2ccc(Cl)cc2)CC2CCCO2)cc1C (stereo unspecified),inconclusive: -57.5%
13,CCc1ccc2c(c1)[C@H]1OCC[C@H]1[C@@H](c1cccs1)N2,inconclusive: -43%
14,O=C(NCc1ccc(Cl)cc1)C(=O)NCC(c1cccnc1)N1CCN(c2ccc(F)cc2)CC1 (stereo unspecified),inconclusive: -50%
15,Cc1ccc(C(O)(C(=O)NNc2ccccn2)c2ccc(C)cc2)cc1,inconclusive: -56.1%
16,CCOc1ccc(NC(=O)N(Cc2ccc(CC)cc2)Cc2cn[nH]c2-c2ccc(OC)cc2)cc1,inconclusive: -44.9%
17,Cc1ccc(C2=NOC(=O)/C2=C\C=C\c2ccccc2)cc1,active: -108%
18,COc1ccc(C(=O)NCC(=O)N/N=C/c2cccc(OC(=O)c3ccco3)c2)cc1OC,inactive: 0.0577%
19,CCOC(=O)c1c(CSc2ccc(CC)cc2)oc2ccc(O)c(CN(C)C)c12,inconclusive: -54.3%
20,CC1CN(CC(O)COC(c2ccc(Cl)cc2)c2ccc(Cl)cc2)CC(C)O1 (stereo unspecified),inconclusive: -43.1%
21,O=S(=O)(c1ccc(F)cc1)N1CCC(N2CCCCCC2)CC1,inactive: -6.41%
22,C=CC(=O)N1C/C(=C/c2ccc(Cl)cc2)C(=O)/C(=C\c2ccc(Cl)cc2)C1,active: -67.2%

row,Compound,"activity change, negative = inhibition"
1,COc1ccc(-n2c(=S)[nH]c3cc(C(=O)Nc4ccc(F)cc4)ccc3c2=O)c(OC)c1,inconclusive: -42.6%
2,COc1cc(C2Nc3cccc4cccc(c34)N2)ccc1O,active: -70.3%
3,Cc1ccc2nc(-c3cccc(NC(=O)c4cccc5c(Cl)cccc45)c3)oc2c1,inactive: -1.6%
4,Cc1ccccc1CNC(=O)CCn1nc(C)c2c(C)n(-c3ccccc3)nc2c1=O,inconclusive: -56.2%
5,C/C(=N\Nc1nc2ccccc2[nH]1)c1ccc(Cl)s1,inconclusive: -45%
6,CC(=O)N1CCN(C(=O)c2ccc(S(=O)(=O)Nc3cccc(C(F)(F)F)c3)cc2)CC1,inactive: 7.3%
7,O=C1C=CC2C3C(=O)N(c4ccccc4)C(=O)C3C1N2Cc1ccccc1 (stereo unspecified),active: -108%
8,COC(=O)c1cc(S(=O)(=O)N2CCN(c3cc(Cl)ccc3C)CC2)c[nH]1,inconclusive: -58.2%
9,CCCc1c(C(=O)Nc2ccc(N3CCOCC3)cc2)cnn1-c1ccccc1,inconclusive: -42.2%
10,CCCCCCCCSC1=CC(=O)C(OC)=C(OC)C1=O,inconclusive: -44.1%
11,Cc1cccc2c(=O)c(-c3ccc(Cl)cc3)c(NC(=O)c3ccco3)oc12,inconclusive: -51.1%
12,COc1ccc(OC)c(NC(=O)N2CC(C)Oc3ccc(C)cc32)c1 (stereo unspecified),inconclusive: -41.7%
13,Cc1cc(C)cc(Oc2nc3c(c(=O)n(C)c(=O)n3C)n2Cc2ccc(F)cc2)c1,inactive: 5.07%
14,COc1ccc(F)cc1S(=O)(=O)NCCc1sc2nc(-c3ccc(F)cc3)nn2c1C,inactive: 1.67%
15,CC1Sc2ccc(Cl)cc2-c2nc(N)ncc21 (stereo unspecified),inconclusive: -43.5%
16,O=S(=O)(Nc1cccc2c1CCCC2)c1cccc(C(F)(F)F)c1,inconclusive: -52%
17,CCOc1ccc(NC(=O)c2nccnc2CO)cc1,inactive: 14.2%
18,Cc1ccc(SCC(=O)Nc2ccc(-c3nc4ccccc4[nH]3)cc2)cc1,inconclusive: -41.1%
19,OCC1(Cc2ccccc2F)CCCN(Cc2c(F)ccc(F)c2F)C1 (stereo unspecified),inconclusive: -59.9%
20,COc1ccc(CCNC(=O)c2ccc(CNc3nc(=S)[nH]c4ccccc34)cc2)cc1OC,inconclusive: -49.7%
21,CN(C)c1cccc(C(=O)OCCCC(=O)c2ccc(F)cc2)c1,inactive: -28.4%
22,O=C(c1ccc(=O)oc1)N1CCN(c2ccc(F)cc2)CC1,inactive: -0.682%

row,Compound,"activity change, negative = inhibition"
1,COc1cc(NC(=O)c2nnn(Cc3ccc(SC)cc3)c2N)cc(OC)c1,inconclusive: -46.1%
2,Cc1cccc(C)c1Nc1sc(C(=O)c2ccccc2)c(N)c1C(=O)Nc1ccc(F)cc1,inconclusive: -56.2%
3,CC(=NNC(=S)N1CC2CCC(CC2)C1)c1ccccn1,inconclusive: -58%
4,COc1ccc(C2=CC(=O)CC(c3ccc(OC)cc3)C2)cc1 (stereo unspecified),inconclusive: -46.1%
5,COc1ccc(Nc2ncc3c(n2)CCN(Cc2cc(Br)cs2)C3)c(OC)c1,inactive: -5.9%
6,COc1ccc(-c2cn3nc(N4CCC(C(=O)NCc5ccccc5F)CC4)sc3n2)cc1,inactive: -1.2%
7,O=C1c2cccnc2C(=O)N1Cc1ccc(F)cc1S(=O)(=O)NCc1ccco1,inactive: 15.8%
8,Cc1oc2ccc(O)c(CN(C)Cc3ccccc3)c2c1C(=O)Nc1cccc(C(F)(F)F)c1,inactive: -11.3%
9,CCOC(=O)C(=Cc1ccc2c(c1)OCO2)c1ccccc1,inconclusive: -44.5%
10,COc1ccc(Nc2nc3ccccc3c(=O)s2)c(OC)c1,inconclusive: -51.6%
11,O=C(c1ccc2c(c1)OCO2)C1CCCN(Cc2cn[nH]c2-c2cccc(F)c2)C1 (stereo unspecified),inconclusive: -47%
12,Nc1nnc(-c2cn(-c3ccccc3)nc2-c2ccc(Cl)cc2)o1,inconclusive: -57.3%
13,CC(C)Cn1cc(C(=O)N2CCOCC2)c2c3ccccc3n(C)c2c1=O,inactive: -5.2%
14,CCC1CN(C(=O)Nc2cc(C)cc(C)c2)c2ccccc2O1 (stereo unspecified),inconclusive: -49.2%
15,CNC(=S)NNc1nc(-c2ccccc2)c2cc(Cl)ccc2n1,inconclusive: -53.2%
16,CCOC(=O)COc1cc(N2C(=O)CSCC2=O)c(Cl)cc1Cl,inactive: -22.7%
17,COc1nc(N(C)C)nc(N(OC)S(=O)(=O)c2ccccc2Cl)n1,inactive: -6.88%
18,COc1cc2c(c(OC)c1OC)C(=O)C(=Cc1ccccc1)O2,inconclusive: -43.5%
19,c1ccc(NCCSc2nc3ccccc3s2)cc1,inconclusive: -51.5%
20,CCC(=O)OCCNc1cc(Sc2nccn2C)c2nonc2c1[N+](=O)[O-],active: -90.1%
